# Reference: the supplement of paper PMC12217912
# Some of the results follow. The full chains were built here from the parent and the listed change. Inactive controls read about 0.05.
# B1: TEV protease; numbered along this chain (parent)
# chain: MGESLFKGPRDYNPISSSICHLTNESDGHTTSLYGIGFGPFIITNKHLFRRNNGTLVVQSLHGVFKVKDTTTLQQHLVDGRDMIIIRMPKDFPPFPQKLKFREPQREERICLVTTNFQTKSMSSMVSDTSCTFPSGDGIFWKHWIQTKDGQCGSPLVSTRDGFIVGIHSASNFTNTNNYFTSVPKNFMELLTNQEAQQWVSGWRLNADSVLWGGHKVFMVKPEEPFQPVKEATQL
# Variants of: B1
# Experiment: raw area under fraction-flipped curve 0-4 h after induction (AUC4h, not background-subtracted), DNA-recorder readout of cleavage of the substrate (dimensionless); higher = more cleavage of the substrate by the protease variant
# Settings: temperature: 34 °C; time window: 0-4 h after rhamnose induction
# Description: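 In vivo DNA recorder in E. coli TOP10(DE3) ΔrhaA at 34 °C. Each TEVp single-site mutant (parent TEVp 0) is paired with a single-site variant of the 7-mer TEVs (canonical ENLYFQ|S). The substrate sits between flexible linkers in a Bxb1-sfGFP-TEVs-SsrA fusion, so cleavage stabilises Bxb1 and speeds flipping of a recombination array, read by NGS. The value is the raw area under the fraction-flipped curve over 0-4 h after rhamnose induction (AUC4h), with ≥20 reads per time point. It is not background-subtracted; inactive controls average about 0.047.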
# 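Note: Bxb1 expression induced with 0.2% (w/v) L-rhamnose at OD600 near 0.5, cultures sampled hourly, flipped fraction per protease–substrate barcode pair counted by paired-end Illumina sequencing.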
Variant,area with substrate ENLYFAS,area with substrate ENLYFCS,area with substrate ENLYFDS,area with substrate ENLYFES,area with substrate ENLYFFS,area with substrate ENLYFGS,area with substrate ENLYFHS,area with substrate ENLYFIS,area with substrate ENLYFKS,area with substrate ENLYFLS,area with substrate ENLYFMS,area with substrate ENLYFNS,area with substrate ENLYFPS,area with substrate ENLYFRS,area with substrate ENLYFSS,area with substrate ENLYFTS,area with substrate ENLYFVS,area with substrate ENLYFWS,area with substrate ENLYFYS
S16Q,0.0557,0.0567,0.0427,0.0605,0.0666,0.0485,0.0567,0.0603,0.0696,0.0576,0.0693,0.0666,0.0615,0.0542,0.0444,0.0524,0.06,0.0399,0.0525
S16R,0.0566,0.0596,0.0539,0.0561,0.046,,0.0664,0.0645,0.0607,0.0187,0.0542,0.0663,0.0623,0.0558,0.0434,0.0548,0.0665,0.0578,0.0587
S16T,0.0617,0.0661,0.0432,0.0597,0.0643,0.0693,,0.0568,0.0634,0.0642,0.0613,0.058,0.0482,,0.0532,0.052,,0.0548,0.0487
S16V,0.0514,0.0615,0.0309,,0.074,0.0316,0.039,0.0552,,0.0598,0.061,0.0467,0.0522,,0.0507,0.0452,,0.0596,
S17W,0.0663,0.0674,0.0534,0.0482,0.0646,,,0.0618,,0.052,0.0602,0.0653,0.053,,0.0516,0.0587,,0.0524,0.0435
S18C,0.0718,0.0675,0.057,0.0638,,,0.0759,0.0564,0.0548,0.0604,0.0673,0.0641,0.0566,0.0603,0.0646,0.0612,0.0629,,0.0547
H21P,0.044,0.0522,0.0472,0.0525,0.0526,0.0573,0.0712,0.0465,0.058,0.0456,0.034,0.0367,0.0549,0.0518,,0.0445,0.0634,0.0461,0.0453
T23P,0.0339,0.04,0.0372,0.0654,0.0442,0.0477,0.038,0.0367,0.0558,,0.0348,,0.0495,0.0465,0.0639,0.0441,0.041,0.0463,0.0429
N24C,0.0617,0.0735,,0.0634,0.0541,,0.0618,0.0625,,,0.0606,0.0545,0.0574,0.0626,,,0.0634,0.0584,0.0727
N24D,0.0137,0.0657,0.0621,0.0571,0.0603,0.0609,0.0432,0.0474,0.0563,0.0614,0.0625,0.0558,0.0515,0.0721,0.0777,0.0599,0.0267,0.0438,0.0408
N24H,0.0631,0.0427,,,0.0727,,0.0546,0.0535,,,0.0557,0.0674,0.0565,0.0497,,0.0614,,,
N24Q,0.0572,0.0594,,0.0658,0.0604,0.0524,0.0362,0.0601,0.0695,,0.0633,0.0571,0.0649,0.0497,0.0656,0.0616,,,
N24R,0.0544,0.0556,,0.0653,0.0721,,0.0533,0.0583,0.0529,0.0566,0.0466,0.0511,0.0227,0.0612,,0.0487,0.0751,,0.0545
N24T,0.0598,0.0489,,0.0657,0.0606,,,0.0605,0.0649,0.0695,0.0401,,0.0528,0.0577,,0.0553,,0.0677,0.0571
N24W,0.0507,0.0433,0.0645,0.0604,0.0685,,0.06,0.0636,0.0584,0.0356,0.0609,0.0695,0.0641,0.0516,0.0563,0.0575,0.0597,0.0945,0.0717
E25K,0.0604,0.0434,0.0562,0.0619,0.0641,0.0601,0.0546,0.0564,0.055,0.0539,0.0366,,0.0687,0.046,0.0626,0.0624,0.0707,0.0563,0.0571
D27P,0.0483,0.0536,0.0557,0.0684,,,0.0698,0.054,0.0552,0.0733,,0.0479,0.0626,,0.0662,0.0652,,,0.0615
G28L,0.0481,0.0642,0.0596,0.0641,0.0616,0.0604,0.0672,0.0534,0.0586,,0.0562,,0.0475,0.073,0.0526,0.0571,0.0634,0.058,0.0612
G28T,0.0579,,,0.0592,0.0904,0.0506,0.047,0.0461,0.0559,,0.066,0.051,0.0462,0.0614,,0.0477,,0.0537,0.0634
T30S,0.0568,0.0503,0.0687,0.0588,0.0674,0.0447,0.0766,0.0586,0.0676,0.0453,0.0574,0.0643,0.062,0.0608,,0.0656,0.0606,,0.0343
T31E,0.0721,0.0489,,0.0704,0.0745,,,0.0431,0.063,0.0703,0.056,0.0631,0.059,0.0608,0.0661,0.0592,0.0485,0.0562,
S32A,0.0489,0.0601,0.0502,0.0599,0.0688,0.0816,0.0889,0.0537,0.0586,,0.0706,0.0692,0.0604,0.0543,,0.0604,0.0742,0.0605,
